# Data: PubChem BioAssay AID504832 (National Center for Advancing Translational Sciences (NCATS), 2011)
# The whole screen tested about 310,000 compounds, of which about 18,000 (5.8%) were called active. The inconclusive results got no clear call from the source; some entries with a clear call stand among them for comparison. Calls follow the shape of the dose curve; as a rule, active = well fitted inhibition curve with a large enough effect; inconclusive = small, poorly fitted or top-dose-only effect, or another doubt; inactive = no such curve, though single readings can be large or run the other way. No potency is given beside an inconclusive call; the fits are too rough.
# Assay: Primary qHTS for delayed death inhibitors of the malarial parasite plastid, 48 hour incubation
# Conditions: P. falciparum luciferase growth in erythrocytes; series mostly up to 28.7 µM; activity change, negative = inhibition: at the top concentration
# Method in brief: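 Read-out is firefly luciferase luminescence from an integrated reporter in P. falciparum, so falling signal marks reduced parasite growth. Infected erythrocytes were at 2% hematocrit and 0.1% parasitemia (final) in Albumax-supplemented RPMI 1640.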
# % is scaled to controls: 0 for no effect and ±100 for the full control effect; potency is read from the fitted curve at half-maximal effect; tags tell the direction and shape of the fitted curve.
SMILES,"activity change, negative = inhibition",Potency
CCn1cc(C(=O)N[C@@H](CCSC)C(=O)NCCN2CCOCC2)c(=O)c2cc3c(cc21)OCO3,inactive: -28.2%,–
COc1ccc(-c2noc(N3CCC(C(=O)N(C)c4ccccc4C)CC3)n2)cc1,–,"inconclusive [inhibitor, single point]"
COc1ccc(CNC(=O)C(c2ccncc2)N(C(=O)Cc2cccs2)c2cccc(C)c2)cc1 (stereo not drawn),–,"inconclusive [inhibitor, partial curve, poor fit]"
Cc1ccc(S(=O)(=O)n2nnc3ccccc32)c(C)c1C,inactive: -20.1%,–
COc1cccc(Cn2c(-c3nonc3N)nc3ccccc32)c1,–,"inconclusive [inhibitor, single point]"
Cc1cccc([C@@H]2[C@@H]3C(=O)N(Cc4ccccc4)C(=O)[C@@H]3[C@]3(C)C(=O)N(c4ccc(C(F)(F)F)cc4)C(=O)N23)c1,–,"inconclusive [inhibitor, partial curve, poor fit]"
COC(=O)CSc1nc(SCc2ccc(C)cc2)nc2c1CCCC2,–,"inconclusive [inhibitor, single point]"
COc1ccc(N=C2SC(C(=O)Nc3ccc(F)cc3)CC(=O)N2C)cc1 (stereo not drawn),–,"inconclusive [inhibitor, partial curve, poor fit]"
CCCc1nc2oc3cc(OC)ccc3c(=O)c2c(=O)n1CCc1ccccc1,–,"inconclusive [inhibitor, partial curve, poor fit]"
Cc1cc(C)cc(NC(=O)/C=C/c2ccc([N+](=O)[O-])s2)c1,–,"inconclusive [inhibitor, single point]"
Cc1ccc(-n2nc(C)c(C3C(C#N)=C(N)OC4=C3C(=O)CC(C)(C)C4)c2Cl)cc1 (stereo not drawn),–,"inconclusive [inhibitor, single point]"
Cc1cc(C)cc(NC(=S)N(Cc2ccc(Br)cc2)Cc2ccc(C(=O)O)cc2)c1,–,"inconclusive [inhibitor, partial curve]"
CC(C)c1ccc(C2C(C#N)=C(N)Oc3c2oc(CO)cc3=O)cc1 (stereo not drawn),–,"inconclusive [inhibitor, single point]"
COCCNC(=O)NC1(C(F)(F)F)Oc2ccc(Cl)cc2O1 (stereo not drawn),–,"inconclusive [inhibitor, partial curve, poor fit]"
Cc1ncoc1C(=O)N1CCCC(CCC(=O)NCc2ccc(F)c(F)c2)C1 (stereo not drawn),inactive: -7.9%,–
COCc1nnc(NC(=O)c2ccc(S(=O)(=O)N3CCCCCC3)cc2)o1,inactive: -1.73%,–
O=C(N/N=C/c1ccc(Cl)cc1)c1cc(-c2cccnc2)nc2ccccc12,–,"inconclusive [inhibitor, single point]"
Fc1ccc(CN2CCN(C(c3ccccc3)c3ccccc3)CC2)cc1,–,"inconclusive [inhibitor, partial curve, poor fit]"
COc1ccc(CCNC(=O)c2c[nH]c3ccc(F)cc3c2=O)cc1OC,–,active: 11.7 µM
NC(=O)c1cc([N+](=O)[O-])ccc1NCc1cccc(N)c1,–,"inconclusive [inhibitor, single point]"
COc1ccc(/C=C2\Oc3cc(OCC(=O)N4CCC[C@H]4C(=O)O)ccc3C2=O)c(OC)c1OC,inactive: 28.5%,–
COC(=O)c1ccc(C(=O)OC)c(NC(=O)COC(=O)C23CC4CC(CC(O)(C4)C2)C3)c1,–,"inconclusive [inhibitor, single point]"
COc1ccc(-n2nnnc2SCC(=O)N2C(C)CCCC2C)c(OC)c1 (stereo not drawn),–,"inconclusive [inhibitor, partial curve, poor fit]"

SMILES,"activity change, negative = inhibition",Potency
CC(=Nc1ccccc1N)c1c(O)n(C)c(=O)[nH]c1=O,inactive: 0.255%,–
COc1ccc2c(c1)OC[C@H]1[C@H]2N2C(=O)c3cc(OC)c(OC)cc3NC(=O)[C@@]2(C)[C@H]1c1ccccc1,–,active: 2.33 µM
CCCCNC(=O)c1onc(CSc2ccccc2)c1C(=O)NCCCC,–,"inconclusive [inhibitor, single point]"
Cc1ccc(NC(=O)CSc2ncn[nH]2)cc1S(=O)(=O)N1CCOCC1,inactive: -25.7%,–
CCCN(C(=O)Cn1ncc2c([nH]c3ccccc32)c1=O)c1ccccc1C,–,"inconclusive [inhibitor, single point]"
COc1ccccc1/C=C/C=N/n1c(-c2ccccn2)n[nH]c1=S,inactive: 74.4%,–
Cc1nn(C(C)C)c(C)c1CN1CCC(C(=O)Nc2cccc(-c3cccc(F)c3)c2)CC1,–,"inconclusive [inhibitor, single point]"
Cc1nnc(SCc2ccc(C(=O)c3ccc(Cl)cc3)o2)n1-c1ccccc1,–,active: 14.7 µM
COC(=O)c1ccc(C(=O)OC)c(NC(=O)/C=C/C(=O)O)c1,inactive: 24.4%,–
COc1ccc(NC(=O)Cc2ccc(Cl)cc2)cc1S(=O)(=O)N1CCCCC1,–,"inconclusive [inhibitor, single point]"
CCOC1C(=O)NC(=O)N1Cc1ccccc1 (stereo not drawn),inactive: 42.4%,–
CCOc1ccccc1NC(=O)CCCn1cc([N+](=O)[O-])cn1,inactive: 11.1%,–
Cc1cc(S(=O)(=O)N(Cc2ccccc2)Cc2ccc(N(C)C)cc2)ccc1-n1cnnn1,–,"inconclusive [inhibitor, partial curve]"
Cc1ccc(C)c(NC(=O)c2ccccc2O)c1,–,"inconclusive [inhibitor, single point]"
CN(C1CCCCC1)S(=O)(=O)c1ccc(SCC(=O)NC(C)(C)C)nc1,–,"inconclusive [inhibitor, single point]"
Cc1c(CN2CCC(n3nccc3NC(=O)c3cccc(F)c3)CC2)cnn1C,–,"inconclusive [inhibitor, single point]"
C[C@@](Cc1ccc(O)c(O)c1)(NN)C(=O)O,–,inactive
CC(C)COC(=O)N1CCN(S(=O)(=O)c2ccc3c(c2)CCC3)CC1,–,"inconclusive [inhibitor, single point]"
O=C(CCl)Nc1ccccc1C(=O)c1ccccc1,–,"inconclusive [inhibitor, single point]"
CCCNC(=O)c1ccc2c(c1)C1C3CCC(C3)C1C(c1ccccc1)N2 (stereo not drawn),–,active: 9.28 µM
CN(C)S(=O)(=O)Oc1cc(Cl)ccc1C(=O)Nc1ccc(F)cc1F,–,"inconclusive [inhibitor, partial curve, poor fit]"
Cn1c(=O)[nH]c(=O)c2[nH]c(N(Cc3ccccc3)Cc3ccccc3)nc21,–,"inconclusive [inhibitor, partial curve]"
CC1CC(OCC(O)C[N+]2(C)CCOCC2)CC(C)(C)C1 (stereo not drawn),–,"inconclusive [inhibitor, single point]"

SMILES,"activity change, negative = inhibition",Potency
CCN(CC)c1ccc(NC(=O)c2ccccc2F)cc1S(=O)(=O)Nc1ccccc1OC,–,active: 4.65 µM
CCC(C)c1ccccc1NC(=S)NC(=O)c1ccco1 (stereo not drawn),–,"inconclusive [inhibitor, partial curve]"
Cc1cc([N+](=O)[O-])nn1CC(=O)N/N=C/c1ccc(O)cc1O,–,"inconclusive [inhibitor, single point]"
COc1ccc(CCNC(=O)c2cccc(S(=O)(=O)N3CCCC3)c2)cc1OC,–,"inconclusive [inhibitor, single point]"
CC(NCCN(C)C)C(=O)C12CC3CC(CC(C3)C1)C2 (stereo not drawn),–,"inconclusive [inhibitor, single point]"
O=C(Nc1cc(C(F)(F)F)cc(C(F)(F)F)c1)Nc1cnn(-c2ccc([N+](=O)[O-])cc2)c1C(F)(F)F,–,active: 1.85 µM
Cc1oc2cc3oc(=O)c(CCC(=O)NCc4ccccn4)c(C)c3cc2c1C,inactive: -7.63%,–
CCCN(CC(=O)Nc1ccccc1OC)C(=O)c1ccc(S(=O)(=O)Nc2ccccc2)cc1,–,"inconclusive [inhibitor, single point]"
CN(C)S(=O)(=O)c1cccc(NC(=S)NC(=O)C2CCCCC2)c1,inactive: 8.79%,–
CC(C)c1nc2oc3c(NCc4cccnc4)ncnc3c2c2c1CCC2,inactive: -5.12%,–
COc1cc2cc(NC(C)=O)cc(NCc3ccccc3)c2cc1OC,–,"inconclusive [inhibitor, partial curve, poor fit]"
CCOc1ccccc1NC(=O)COn1nnc2ccc(Cl)cc21,inactive: 90%,–
COC(=O)Cc1ccc(NC(=S)N2CCCCC2C)cc1 (stereo not drawn),inactive: 23.4%,–
CCCCN1C(=O)Cc2c1nc(N)c1c(N)nc(N(CCC)CCC)c(C#N)c21,–,active: 4.65 µM
COc1ccc(/C(C)=N/NC2=NCCN2)cc1Cl,–,active: 4.65 µM
c1cc2c3c(cccc3c1)NC1(CCC3(CC1)Nc1cccc4cccc(c14)N3)N2,–,active: 9.28 µM
CCOC(=O)c1c(C)sc2c1N(C(=O)CCl)c1cc(Cl)ccc1S2,–,"inconclusive [inhibitor, full curve, poor fit]"
COc1ccc(C(CCN2CCOCC2)c2c(O)cc(OC)cc2OC)cc1 (stereo not drawn),–,active: 3.7 µM
Cc1nc(-c2ccc(C(F)(F)F)cc2)sc1C(=O)NN,–,"inconclusive [inhibitor, single point]"
Cc1cccc2nc(-c3ccccc3)nc(N3CCC(O)(c4ccc(Cl)cc4)CC3)c12,–,"inconclusive [inhibitor, single point]"
Oc1ccccc1CN1CCCN(Cc2ccccc2O)C1,–,"inconclusive [inhibitor, single point]"
O=C(CSc1nc2[nH]ncc2c(=O)n1-c1ccccc1Br)NCc1ccccc1Cl,–,"inconclusive [inhibitor, partial curve, poor fit]"
